Data from PMC4242493.
This is one part of the list. The list includes weakly bound sequences.

Target: MaxL homodimer (UniProt P61244)
Test: universal protein-binding microarray (PBM)
Conditions: PBS-based mixture, 10 nM His-tagged protein dimer, 2% milk, 200 ng/uL BSA, 50 ng/uL salmon testes DNA, 0.02% TX-100; detection with Alexa 488 anti-His …; high values mean tight binding; most listed sequences are background and not binding sites; double strand, one strand shown

Sequence of UniProt P61244 (P61244 whole entry): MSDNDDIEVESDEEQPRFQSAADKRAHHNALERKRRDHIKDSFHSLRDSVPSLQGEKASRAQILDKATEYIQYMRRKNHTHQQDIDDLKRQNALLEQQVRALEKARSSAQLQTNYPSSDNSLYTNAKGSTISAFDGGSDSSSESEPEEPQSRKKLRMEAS

Sequence | binding signal (normalized occupancy)
CCGTAAAG | 0.0741
GCCGTGCC | 0.0731
CATGCACA | 0.0961
AATGTTTG | 0.0761
TCATCTAA | 0.0752
AGCATTCG | 0.0711
ACAAATAT | 0.0828
GGGGCTAA | 0.0741
ACATACAT | 0.0931
CTGGTCTC | 0.0687
ATCTCTAC | 0.0742
ACAATAGA | 0.0762
CGCGAATA | 0.0733
AACGTGCA | 0.109
CGCCTCTC | 0.0756
CTAGAGTA | 0.071
ACGCTCGC | 0.079
ACGTGATG | 0.103
CGGTAGAA | 0.0732
AGAACCAA | 0.0749
ATGCGGTA | 0.0895
ATCAGGCC | 0.0779
TCACGCGA | 0.11
CACGAATA | 0.0763
AGCTATCA | 0.0753

Sequence | binding signal (normalized occupancy)
AAGCGTCT | 0.0699
GACTGACC | 0.0743
GGTACCAC | 0.0743
TAAGGCCA | 0.0763
TCAGTGGA | 0.0707
AGGTCGGA | 0.0712
CCTGTAAA | 0.0779
GGGTGGTA | 0.0821
CTAGCTAA | 0.0691
GGATTCTA | 0.0823
AGTGAAAG | 0.0743
ATAAGTCG | 0.0753
ACAACGAG | 0.0765
ATTGGCGG | 0.0732
CATTGTGG | 0.0863
CTCACAAA | 0.0699
CGATGACC | 0.0756
ATATCAGA | 0.0808
CATCTCTC | 0.0753
CGCATTAA | 0.072
AGCCCCCA | 0.073
ACCGCCGA | 0.07
GTCCCACA | 0.0798
AACTTCTA | 0.0716
CGCACCAG | 0.0773

Sequence | binding signal (normalized occupancy)
CCCGGATA | 0.0739
AGCCTGCG | 0.0682
CCTAGTGA | 0.0749
ACCCTGAA | 0.0777
GGAGAACA | 0.0748
AATCCCCG | 0.0734
CGCAGTGC | 0.0735
AGGTAAAA | 0.0679
GGTTTTCA | 0.0723
AGCTAACG | 0.0696
AAGTCATC | 0.0715
GCCCACTA | 0.0792
GCAAGCCC | 0.0687
AGATACAC | 0.0831
GCCCACGA | 0.0823
AACCAGGT | 0.0775
CCTCCTGA | 0.0759
ATCTCTGG | 0.0713
CTCGCAAG | 0.0709
CCTACGTC | 0.0767
ACCCTGGA | 0.0782
CCACGATC | 0.0837
ACGCGTGG | 0.139
ACTGGGTA | 0.0746
GGATTTTA | 0.0772

Sequence | binding signal (normalized occupancy)
AAAACGCT | 0.0696
AGTACGGA | 0.0713
AGGGGGTC | 0.0831
CGCTCCTA | 0.0734
ACTCGAGA | 0.0749
GAATCTAA | 0.0735
CCCGCCAC | 0.0753
TAACTTGA | 0.0743
TATACGGA | 0.0774
ACGTGTTG | 0.109
CCCAGTAG | 0.0725
AGTACAAG | 0.0744
AGGAGGCC | 0.0712
TAAAAACA | 0.0775
ATGGTCAG | 0.0806
GGTATTAC | 0.0753
ATGCTGTG | 0.0916
AAGGTTGG | 0.0749
AGGGGAGC | 0.0706
TCAGAAAA | 0.0729
ATGGAGGG | 0.0787
CACCAACA | 0.0785
TAAACTGA | 0.0757
AGGGGTAG | 0.082
AGACACCT | 0.0786

Sequence | binding signal (normalized occupancy)
CACTCTCA | 0.0827
ATGGCAGC | 0.0797
TCTAAAGA | 0.072
ACTAGTAC | 0.0749
CTTAGGTC | 0.0711
ATTAAAAG | 0.0674
TAACCGGA | 0.0702
CTCAGGCA | 0.0739
ACTGTGCT | 0.0715
AGAGTAAC | 0.0759
CAATTCTC | 0.0735
AACCTTAG | 0.0729
AGGGGTGA | 0.082
AACGATCT | 0.0769
AGGATAGC | 0.0766
AATCAGCC | 0.069
ACACCGAA | 0.078
ATATAAGA | 0.0838
GCTTGTAA | 0.0753
AGGGCCCT | 0.0684
TACCTTGA | 0.0849
CACTAGCC | 0.0749
CACAGTCA | 0.0797
GCTTTCCA | 0.0685
ACGATTCA | 0.0773

Sequence | binding signal (normalized occupancy)
GGTGTGCA | 0.0858
CATGCAAA | 0.0845
CTGGGTGC | 0.0787
CCTCGAAG | 0.0685
GAATAACC | 0.0756
CTGTGAGC | 0.0807
CTCAGCTA | 0.0685
AGACCGTC | 0.0782
CAAAATAC | 0.0809
GTCACTTA | 0.0732
AGTCCTAA | 0.0726
ACTGATAT | 0.0787
CGCAACAA | 0.072
ACTATCGC | 0.0742
AGCATTGC | 0.0766
AGAAGGAC | 0.0703
AATGACCC | 0.0851
CCTTTTGC | 0.0701
GACAAGGA | 0.0744
CGCTTTCC | 0.067
GCATTGGC | 0.0747
ACCAATCC | 0.0693
ACGCTGGG | 0.0772
ACCAGAGT | 0.0713
CGATGCGA | 0.0731

Sequence | binding signal (normalized occupancy)
CGACACTA | 0.0759
ATCGCATC | 0.0742
ATAATGCA | 0.0838
AATCTCAC | 0.0766
GGTTCGCA | 0.0757
AGAAAGGA | 0.0795
GACTCACC | 0.0746
TATTCCGA | 0.072
AATACGTC | 0.0844
CCATAGCA | 0.0766
TAGACTAA | 0.0729
GCGATTTA | 0.0734
ACTCATGC | 0.0969
CTGGCCCA | 0.068
ATCCGAAG | 0.0697
CGTCCACA | 0.0803
TAAGTCTA | 0.0772
CGAGCGTC | 0.0698
AGATTCCC | 0.0779
ACATTGCA | 0.0807
GCTAACTA | 0.0678
ACCGACAT | 0.0842
ATCACGTC | 0.0875
CTACAGTA | 0.0804
ATGATATG | 0.0845

Sequence | binding signal (normalized occupancy)
GAGGGCGC | 0.0712
CGCAATAC | 0.0776
CTTTAAAC | 0.0744
CATCAAGA | 0.0769
AAACGTAC | 0.074
ATTTCCAA | 0.0771
CCGTTAAA | 0.0712
AAGGTACG | 0.0718
AATCAGGT | 0.0742
CTCGTGTA | 0.103
CACATCCA | 0.0871
ACCGCTCA | 0.0747
AATGTAGG | 0.0765
TACAGGTA | 0.0721
AATAACGA | 0.0752
CGCTTTAC | 0.0725
AAAATTGT | 0.0706
AGCCGCGG | 0.0667
AACTGAGC | 0.0707
ACGACCCC | 0.0759
CCTCTCCG | 0.0668
ATGCCAAT | 0.0783
AGAAAGTA | 0.0718
CCAGGACG | 0.067
ACGTCGCG | 0.0767

Sequence | binding signal (normalized occupancy)
AAACCCCG | 0.0809
CCCTCAGC | 0.0733
CAGGAATG | 0.0756
ATCCACCA | 0.0802
GGTAGCCA | 0.0732
GGTTATAA | 0.0816
CTCTTGGC | 0.0732
AATGTGGG | 0.0907
AGGTATTG | 0.0765
GCAGGAGC | 0.0659
ATTGTCGC | 0.0746
TATTACAA | 0.0802
CACGGATC | 0.0749
AGGTATTC | 0.0792
CAGGCCCA | 0.0716
CCCCCGCC | 0.0803
CATAGGAC | 0.0862
CTTTTGAA | 0.0685
AGGCTCTC | 0.0713
ATCCCTTG | 0.0765
GAGAGGAC | 0.0723
GGCGACGA | 0.0664
AGGTATAG | 0.0766
TCCCTACA | 0.0783
CATGGGTC | 0.0915

Sequence | binding signal (normalized occupancy)
CTCCCCTA | 0.0765
GCCCGGAC | 0.0693
CGTGTTTA | 0.0906
TAATCTCA | 0.0735
GTTAGAAA | 0.0757
AGCTCGCA | 0.0718
ACCATACT | 0.0809
CGGCCCGA | 0.0673
ACTCGCAA | 0.0713
AACATGTG | 0.184
GCAACAGC | 0.071
CAATGGTG | 0.073
CAGCGAAA | 0.0644
GCCAGCAA | 0.0729
GCCCGATA | 0.0777
GGTCCTAC | 0.0703
CGAACTAC | 0.0757
AAATCTTG | 0.0741
AATTTAAG | 0.0704
CCCAATGA | 0.0746
GGCGCGAC | 0.0676
ACGACCGA | 0.0735
GCACCTGA | 0.0804
ACTTCGCG | 0.0677
CGAGAAAA | 0.0723

Sequence | binding signal (normalized occupancy)
TACTTAAA | 0.0723
AACTGGTC | 0.0737
GTAGTAAA | 0.0757
CAATTCAA | 0.0746
GTCGGCAA | 0.0674
ACCTCTGG | 0.0714
AGTTTGCA | 0.0812
TTAAGGAA | 0.0714
AGTGTAAT | 0.0794
AGTACCTG | 0.0747
ACTATGTC | 0.078
CCCCAGCG | 0.0723
CCGACATA | 0.083
ATGCGTTG | 0.0816
GTGATGTA | 0.0832
CCCGCGCA | 0.0768
GTCTTAAC | 0.0741
TAATGCAA | 0.0814
ATCCCAAA | 0.0753
ATGCACGA | 0.0913
CCAAGTCG | 0.0722
AGGCTCAA | 0.0675
CCTGAACC | 0.0747
ATAGCACG | 0.0866
CCAACTCC | 0.0719

Sequence | binding signal (normalized occupancy)
GGGAGGGA | 0.08
CTTCGTCC | 0.0666
AGCTCGAA | 0.065
AGAGTCAC | 0.0766
CGTATGGA | 0.0815
TACCCCTA | 0.0823
CGAGGAAA | 0.0761
ATCATGGA | 0.0834
TCGACGCA | 0.0733
ATTGCCAG | 0.0738
CCACACTC | 0.0824
CACGCGTA | 0.121
ATGGTAAT | 0.0855
GACTGAGC | 0.0658
GAGGGCAC | 0.0786
ATAGAAAA | 0.0835
AATCCGCG | 0.0738
ACCTTCAA | 0.0719
CCTCAAGG | 0.0722
CGAGTGAG | 0.0739
CCCACTTC | 0.0745
GTATCAAC | 0.0867
ACTCCCAG | 0.0739
TTCATCAA | 0.0725
AGGGGCGA | 0.0743

Sequence | binding signal (normalized occupancy)
AGTTCTAG | 0.0691
AGGTCTGG | 0.0697
TTCCTAAA | 0.0761
CCAATCGG | 0.0718
ACCGTCAG | 0.0692
CCGTAGGA | 0.0843
AATTCCTC | 0.0773
ACTGCGAT | 0.0712
ACACACCA | 0.0816
ACATCGCA | 0.0786
CAACACGC | 0.0995
CGTACCAG | 0.0729
ACGCCATC | 0.0794
GAGCACTA | 0.0715
ACTGGCTG | 0.0716
CCAGCGGG | 0.0662
ATTTACAG | 0.0746
CCCTTCCC | 0.077
AGTCGCTC | 0.0699
AGCCGTGC | 0.0711
AACCTTTA | 0.0757
TAGAGCTA | 0.0719
ACTCGAAC | 0.0715
GATATTCA | 0.0766
TAGTCGGA | 0.0689

Sequence | binding signal (normalized occupancy)
AGGTAAAG | 0.0732
AATAATAC | 0.0773
TATCTCAA | 0.0807
ATCCAAGC | 0.0746
AAAAATTT | 0.0678
ACCCTGCC | 0.0705
AACTCGAT | 0.0773
CGGGACCG | 0.0673
CAACAAGG | 0.0748
TGCATTAA | 0.0782
AAGATGTC | 0.0793
ACGTATCT | 0.0817
CTGGTTGA | 0.07
CGGGAATA | 0.0776
ATGTCGCG | 0.0796
ATGCTGAC | 0.0823
ACAAATCG | 0.0752
AAATAAGT | 0.0769
GGTGTTTA | 0.0788
